# Results as given in the supplement of paper PMC8728848.
# The other results are listed elsewhere or left out.
# B1: MGL6A (Homo sapiens) (protein)
# chain: MTRTYENFQYLENKVKVQGFKNGPLPLQSLLQRLCSGPCHLLLSLGLGLLLLVIICVVGFQNSKFQRDLVTLRTDFSNFTSNTVAEIQALTSQGSSLEETIASLKAEVEGFKQERQAVHSEMLLRVQQLVQDLKKLTCQVATLNNNGEEASTEGTCCPVNWVEHQDSCYWFSHSGMSWAEAEKYCQLKNAHLVVINSREEQNFVQKYLGSAYTWMGLSDPEGAWKWVDGTDYATGFQNWKPGQPDDWQGHGLGGGEDCAHFHPDGRWNDDVCQRPYHWVCEAGLGQTSQESH
# How the values were obtained:
# Test in all cases: glycan array binding signal (z-score within array); higher = stronger binding
# Conditions in all cases: glycan notation: IUPAC condensed, linker removed
# [1] = target: Gal3S(b1-4)[Fuc(a1-3)]GlcNAc
# In short: (§1)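 Arrays were curated from the Consortium for Functional Glycomics database, 3228 in total, and kept only where the protein sequence was available. Binding is expressed as a within-array Z-score. This score was averaged across arrays of the same protein sequence at different concentrations or buffers and across linkers, and negative values can be read as non-binding.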
# [2] = target: Gal3S(b1-4)[Fuc(a1-3)]GlcNAc6S
# In short: as §1
# Gal3S4S(b1-4)GlcNAc = target: Gal3S4S(b1-4)GlcNAc
# In short: as §1
# Gal3S6S(b1-4)GlcNAc = target: Gal3S6S(b1-4)GlcNAc
# In short: as §1
# Gal3S6S(b1-4)GlcNAc6S = target: Gal3S6S(b1-4)GlcNAc6S
# In short: as §1
# Gal4S(b1-4)GlcNAc = target: Gal4S(b1-4)GlcNAc
# In short: as §1
# Gal4S6S(b1-4)GlcNAc = target: Gal4S6S(b1-4)GlcNAc
# In short: as §1
# Gal6P(b1-4)GlcNAc = target: Gal6P(b1-4)GlcNAc
# In short: as §1
# Gal6S(b1-3)GlcNAc = target: Gal6S(b1-3)GlcNAc
# In short: as §1
# Gal6S(b1-3)GlcNAc6S = target: Gal6S(b1-3)GlcNAc6S
# In short: as §1
# Gal6S(b1-4)Glc = target: Gal6S(b1-4)Glc
# In short: as §1
# Gal6S(b1-4)Glc6S = target: Gal6S(b1-4)Glc6S
# In short: as §1
# Gal6S(b1-4)GlcNAc = target: Gal6S(b1-4)GlcNAc
# In short: as §1
# Gal6S(b1-4)GlcNAc6S = target: Gal6S(b1-4)GlcNAc6S
# In short: as §1
# GalNAc(a1-3)Gal = target: GalNAc(a1-3)Gal
# In short: as §1
# GalNAc(a1-3)GalNAc = target: GalNAc(a1-3)GalNAc
# In short: as §1
# [3] = target: GalNAc(a1-3)GalNAc(b1-3)Gal(a1-4)Gal(b1-4)Glc
# In short: as §1
# [4] = target: GalNAc(a1-3)GalNAc(b1-3)Gal(a1-4)Gal(b1-4)GlcNAc
# In short: as §1
# GalNAc(b1-3)Gal = target: GalNAc(b1-3)Gal
# In short: as §1
# [5] = target: GalNAc(b1-3)Gal(a1-4)Gal(b1-4)GlcNAc
# In short: as §1
# [6] = target: GalNAc(b1-3)Gal(a1-4)Gal(b1-4)GlcNAc(b1-3)Gal(b1-4)Glc
# In short: as §1
# [7] = target: GalNAc(b1-3)Gal(a1-6)Gal(b1-4)Glc
# In short: as §1
# GalNAc(b1-3)GalNAc = target: GalNAc(b1-3)GalNAc
# In short: as §1
# GalNAc(b1-3)GlcNAc = target: GalNAc(b1-3)GlcNAc
# In short: as §1
# GalNAc(b1-4)Gal(b1-4)Glc = target: GalNAc(b1-4)Gal(b1-4)Glc
# In short: as §1
# GalNAc(b1-4)GlcNAc = target: GalNAc(b1-4)GlcNAc
# In short: as §1
# [8] = target: GalNAc(b1-4)GlcNAc(b1-2)Man
# In short: as §1
# [9] = target: GalNAc(b1-4)GlcNAc(b1-2)Man(a1-3)[GalNAc(b1-4)GlcNAc(b1-2)Man(a1-6)]Man(b1-4)GlcNAc(b1-4)GlcNAc
# In short: as §1
# [10] = target: GalNAc(b1-4)GlcNAc(b1-3)GalNAc(b1-4)GlcNAc
# In short: as §1
# GalNAc(b1-4)GlcNAc6S = target: GalNAc(b1-4)GlcNAc6S
# In short: as §1
# GalNAc(b1-6)GalNAc = target: GalNAc(b1-6)GalNAc
# In short: as §1
# GalNAc3S(b1-4)GlcNAc = target: GalNAc3S(b1-4)GlcNAc
# In short: as §1
# GalNAc3S(b1-4)GlcNAc3S = target: GalNAc3S(b1-4)GlcNAc3S
# In short: as §1
# [11] = target: GalNAc3S(b1-4)[Fuc(a1-3)]GlcNAc
# In short: as §1
# GalNAc4S6S(b1-4)GlcNAc = target: GalNAc4S6S(b1-4)GlcNAc
# In short: as §1
# GalNAc6S(b1-4)GlcNAc = target: GalNAc6S(b1-4)GlcNAc
# In short: as §1
# Glc(a1-4)Glc = target: Glc(a1-4)Glc
# In short: as §1
# [12] = target: Glc(a1-4)Glc(a1-4)Glc(a1-4)Glc
# In short: as §1
binder,measurement,setting,value
B1,glycan array binding signal (z-score),[1],-0.236
same,glycan array binding signal (z-score),[2],-0.255
same,glycan array binding signal (z-score),Gal3S4S(b1-4)GlcNAc,-0.237
same,glycan array binding signal (z-score),Gal3S6S(b1-4)GlcNAc,-0.187
same,glycan array binding signal (z-score),Gal3S6S(b1-4)GlcNAc6S,-0.255
same,glycan array binding signal (z-score),Gal4S(b1-4)GlcNAc,-0.35
same,glycan array binding signal (z-score),Gal4S6S(b1-4)GlcNAc,-0.186
same,glycan array binding signal (z-score),Gal6P(b1-4)GlcNAc,-0.28
same,glycan array binding signal (z-score),Gal6S(b1-3)GlcNAc,-0.259
same,glycan array binding signal (z-score),Gal6S(b1-3)GlcNAc6S,-0.311
same,glycan array binding signal (z-score),Gal6S(b1-4)Glc,-0.28
same,glycan array binding signal (z-score),Gal6S(b1-4)Glc6S,-0.313
same,glycan array binding signal (z-score),Gal6S(b1-4)GlcNAc,-0.258
same,glycan array binding signal (z-score),Gal6S(b1-4)GlcNAc6S,-0.326
same,glycan array binding signal (z-score),GalNAc(a1-3)Gal,2.73
same,glycan array binding signal (z-score),GalNAc(a1-3)GalNAc,0.623
same,glycan array binding signal (z-score),[3],0.958
same,glycan array binding signal (z-score),[4],0.335
same,glycan array binding signal (z-score),GalNAc(b1-3)Gal,4.13
same,glycan array binding signal (z-score),[5],1
same,glycan array binding signal (z-score),[6],3.34
same,glycan array binding signal (z-score),[7],4.47
same,glycan array binding signal (z-score),GalNAc(b1-3)GalNAc,1.21
same,glycan array binding signal (z-score),GalNAc(b1-3)GlcNAc,3.67
same,glycan array binding signal (z-score),GalNAc(b1-4)Gal(b1-4)Glc,-0.268
same,glycan array binding signal (z-score),GalNAc(b1-4)GlcNAc,1.53
same,glycan array binding signal (z-score),[8],3.46
same,glycan array binding signal (z-score),[9],2.98
same,glycan array binding signal (z-score),[10],3.79
same,glycan array binding signal (z-score),GalNAc(b1-4)GlcNAc6S,2.66
same,glycan array binding signal (z-score),GalNAc(b1-6)GalNAc,-0.247
same,glycan array binding signal (z-score),GalNAc3S(b1-4)GlcNAc,-0.255
same,glycan array binding signal (z-score),GalNAc3S(b1-4)GlcNAc3S,-0.241
same,glycan array binding signal (z-score),[11],-0.252
same,glycan array binding signal (z-score),GalNAc4S6S(b1-4)GlcNAc,-0.264
same,glycan array binding signal (z-score),GalNAc6S(b1-4)GlcNAc,3.46
same,glycan array binding signal (z-score),Glc(a1-4)Glc,-0.271
same,glycan array binding signal (z-score),[12],-0.253
